Measured values taken from PubChem BioAssay AID1460 (National Center for Advancing Translational Sciences (NCATS), 2008).
Several values for one entry are separate records, joined by “and”; a condition that tells them apart may be missing. Equal values may be shown once. Out of some 270,000 compounds screened, about 5,800 (2.1%) were called active. The inconclusive results got no clear call from the source; some entries with a clear call stand among them for comparison. The call rests on the fitted dose curve; in most records, active means well fitted inhibition curve with a large enough effect; inconclusive means small, poorly fitted or top-dose-only effect; inactive means flat fitted curve, though single readings scatter. Potencies of inconclusive entries are doubtful fits and often do not repeat.

What follows are compounds tested against Microtubule-associated protein tau (Homo sapiens) (UniProt P10636) (assay: qHTS for Inhibitors of Tau Fibril Formation, Thioflavin T Binding). Conditions: recombinant tau K18 P301L (four-repeat tau fragment), heparin-induced fibrillization, ThT fluorescence; series mostly up to 57.4 µM; activity, negative = inhibition: at the top concentration.
Procedure, shortened: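 Heparin-induced (20 uM) aggregation of recombinant human K18 P301L tau, 15 uM unlabeled with 0.24 uM labeled, pH 7 acetate buffer, 6 hr at 37 C with compound. Fibrils quantified by 30 uM ThT fluorescence after 1 hr ambient incubation.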
Further: nearly all actives have a fitted effect of over 55% in size.
On the % scale 0 is the no-effect control and ±100 the full control effect; potency means the concentration at half of the fitted maximal effect; tags describe the fitted curve by direction and shape.

UniProt P10636, sequence (P10636 whole entry, looked up, the tested form may be a part): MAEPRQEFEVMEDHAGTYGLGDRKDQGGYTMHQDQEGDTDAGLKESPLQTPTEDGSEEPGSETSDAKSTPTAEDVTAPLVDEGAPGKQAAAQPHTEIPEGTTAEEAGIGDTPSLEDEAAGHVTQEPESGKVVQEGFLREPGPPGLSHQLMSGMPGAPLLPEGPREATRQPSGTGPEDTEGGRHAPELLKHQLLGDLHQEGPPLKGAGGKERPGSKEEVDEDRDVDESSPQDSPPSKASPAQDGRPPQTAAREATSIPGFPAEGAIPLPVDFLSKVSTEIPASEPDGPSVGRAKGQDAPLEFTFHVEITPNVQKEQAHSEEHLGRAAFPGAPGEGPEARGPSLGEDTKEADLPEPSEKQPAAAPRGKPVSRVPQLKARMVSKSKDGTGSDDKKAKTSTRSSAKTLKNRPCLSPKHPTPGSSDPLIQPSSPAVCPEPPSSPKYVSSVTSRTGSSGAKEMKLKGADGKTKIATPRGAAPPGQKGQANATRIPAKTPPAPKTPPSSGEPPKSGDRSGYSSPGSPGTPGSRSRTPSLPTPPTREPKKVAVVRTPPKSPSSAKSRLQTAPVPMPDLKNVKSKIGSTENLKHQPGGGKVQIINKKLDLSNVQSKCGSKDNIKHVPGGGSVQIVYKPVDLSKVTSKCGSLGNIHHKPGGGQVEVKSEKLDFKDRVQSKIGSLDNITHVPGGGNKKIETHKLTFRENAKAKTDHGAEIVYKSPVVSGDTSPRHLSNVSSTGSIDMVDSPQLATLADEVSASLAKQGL

SMILES	Potency	activity, negative = inhibition
C=CCOc1ccccc1CNc1ccc2[nH]c(=O)[nH]c2c1	inconclusive: 44.7 µM [inhibitor, single point]	
COC(=O)C1=C(C)N=c2s/c(=C/c3ccoc3)c(=O)n2C1c1ccccc1 (stereo not given)	inconclusive: 14.1 µM [inhibitor, partial curve]	
Cc1ccc2c(c1)C(c1ccc(N3CCOCC3)cc1)=NNC(c1cccs1)=N2	inconclusive: 15.8 µM [inhibitor, partial curve]	
CC(C)c1ccc(Oc2cccc(C(=O)/C(C#N)=C/N(C)C)c2)cc1	inconclusive: 17.8 µM [inhibitor, partial curve]	
COc1ccc(N2CC(NC(=O)c3ccco3)CC2=O)cc1OC (stereo not given)		inactive: 2.91%
O=C(CCc1nc2ccccc2[nH]c1=O)N/N=C/c1ccccc1		inactive: -8.62%
Cc1cccc(C)c1NC(=O)C(C)c1ccc(-c2ccccc2)c(F)c1 (stereo not given)		inactive: -0.926%
CCN1CCN(CCNC(=O)Nc2ccc([N+](=O)[O-])cc2)CC1		inactive: -9.58%
CCS(=O)(=O)c1ccc(OC)c(N=Nc2ccc(O)c3ncccc23)c1	inconclusive: 14.1 µM [inhibitor, partial curve]	
CC(=O)Nc1ccc(S(=O)(=O)NCc2cccn2Cc2cccc(C)c2)cc1		inactive: -5.78%
COC(=O)C1=C(C(=O)OC)[C@@H]2N(C)c3ccc(OC)cc3[C@@]23C[C@@H](C(=O)OC)N(S(=O)(=O)c2ccc(C)cc2)C3=N1		inactive: 1.13% [at 11.5 µM]
Cc1c(C(=O)Nc2ccc(Cl)cc2)c2ccccn2c1CCc1ccncc1	inconclusive: 8.91 µM [inhibitor, partial curve]	
Cc1c(C(=O)OCC2CCCO2)[nH]c2c1C(=O)CC(c1ccco1)C2 (stereo not given)	inconclusive: 20 µM [inhibitor, partial curve]	
Cc1cc2oc(=O)cc(-c3ccccc3)c2c(C)c1-c1ccc(C(F)(F)F)cc1	inconclusive: 11.2 µM [inhibitor, partial curve]	
CCOC(=O)c1c(C)oc2c1c(C(c1ccncc1)N1CCOCC1)c(O)c1ccccc12 (stereo not given)	active: 14.1 µM	
CCN1CCCC1Cn1cnc2c([nH]c3cccc(Cl)c32)c1=O (stereo not given)		inactive: -3.58%
O=C(OCc1nnc(-c2ccccc2)o1)c1cc([N+](=O)[O-])ccc1Cl		inactive: -0.182%
COc1ccc(/C=C/C(=O)C2CC2)cc1COc1cccc(C)c1C	inconclusive: 20 µM [inhibitor, partial curve]	
O=C(Nc1ccc2nc3ccccc3nc2c1)c1ccccc1	inconclusive: 2.24 µM [inhibitor, full curve]	
COc1ccc(C(=O)Oc2cc(/C=N/NC(N)=S)ccc2OC)cc1		inactive: -17.4%
S=c1[nH]nc(-c2ccco2)n1/N=C/c1ccccn1		inactive: -7.68%
COc1ccc(/C(C)=N\Nc2nc(-c3ccc(Cl)cc3)cc(C(F)(F)F)n2)cc1OC	inconclusive: 12.6 µM [inhibitor, partial curve]	
COc1cc(/C=C2\SC(=S)N(C(C(=O)O)c3ccccc3)C2=O)ccc1O (stereo not given)	active: 7.08 µM	
CS(=O)(=O)NCCCCNc1ccc(C(F)(F)F)cc1[N+](=O)[O-]	inconclusive: 22.4 µM [inhibitor, partial curve]	

SMILES	Potency	activity, negative = inhibition
Cc1cc(N2CCCCC2)n2nc(C)c(-c3ccccc3)c2n1		inactive: -8.84%
Brc1ccc(-c2nnc3n2C2(CCCC2)Cc2ccccc2-3)o1	inconclusive: 28.2 µM [inhibitor, partial curve, poor fit]	
O=C1ON=C(c2ccccc2)/C1=C/c1ccc(-c2ccccc2[N+](=O)[O-])o1	inconclusive: 22.4 µM [inhibitor, single point]	
CN1CCN(c2ccc(S(=O)(=O)N3CCCCC3)cc2NC(=O)c2ccc3ccccc3c2)CC1		inactive: -4.83%
CCOC(=O)c1[nH]c(C)c(CCC(=O)N2CCN(c3cccc(C)c3C)CC2)c1C	inconclusive: 25.1 µM [inhibitor, single point]	
Cc1ccc2nc(-c3ccncc3)c(Nc3ccc(C(C)C)cc3)n2c1		inactive: -0.392%
CCOc1ccc(-n2c(C)cc(/C=N\NC(=O)CC(=O)NC3CCCCC3)c2C)cc1	inconclusive: 28.2 µM [inhibitor, single point]	
CCCCC1CCC(c2nc(-c3ccccn3)no2)CC1 (stereo not given)	inconclusive: 35.5 µM [inhibitor, single point]	
CCOc1ccc2nc(C)cc(Nc3ccc4c(c3)OCCO4)c2c1	inconclusive: 39.8 µM [inhibitor, single point]	
CCC(C)NC(=O)CSC1=Nc2ccccc2C2=NC(CC(=O)NCc3ccccc3)C(=O)N12 (stereo not given)		inactive: -2.59%
COC(=O)[C@@]1(Cc2ccc(OC)cc2)[C@H]2c3cc(C(=O)N(C)C)n(Cc4ccsc4Br)c3C[C@H]2CN1C(=O)c1ccccc1	inconclusive: 0.141 µM [inhibitor, full curve, poor fit]	
O=C(Nc1ccccc1N1CCCCC1)c1ccc(-c2ccc(Cl)cc2)o1	inconclusive: 39.8 µM [inhibitor, single point]	
O=c1ccn(Cc2ccccc2)c(=O)n1Cc1ccccc1		inactive: -6.82%
CCOCCCNC(=O)c1ccc(N2CCCC2)c(NS(=O)(=O)c2ccc(C)cc2)c1	inconclusive: 22.4 µM [inhibitor, single point]	
CCCNC(=S)Nc1ccccc1		inactive: -0.0102%
Cc1ccn2c(NC3CCCC3)c(-c3ccsc3)nc2c1	inconclusive: 25.1 µM [inhibitor, single point]	
Cc1cc(=O)[nH]c(N/N=C/c2c(C)nn(-c3ccccc3)c2Cl)n1	inconclusive: 20 µM [inhibitor, partial curve, poor fit]	
Cc1nc2cc(NC(=O)N3c4ccccc4CC3C)ccc2o1 (stereo not given)		inactive: -9.01%
CSc1ccc(-c2nc3cnccn3c2Nc2ccc3c(c2)OCO3)cc1	inconclusive: 10 µM [inhibitor, partial curve]	
Cc1ccnc(NC(=O)c2sc3cc(Cl)ccc3c2Cl)c1	inconclusive: 1.78 µM [inhibitor, full curve]	
CCNc1ccc(C(=O)OCC(=O)NCc2ccc(C)cc2)cc1[N+](=O)[O-]	inconclusive: 10 µM [inhibitor, partial curve]	
COC(=O)c1ccc(NC(=O)CCN2CCN(c3ccccc3)CC2)cc1	inconclusive: 2.51 µM [inhibitor, partial curve]	
O=S(=O)(Nc1ccc(-c2ccc(N3CCCC3)nn2)cc1)c1ccc(OC(F)(F)F)cc1		inactive: -8.77%
CCn1c(C)nc2cc(-c3nc4n(n3)Cc3ccccc3-4)ccc21	inconclusive: 0.398 µM [inhibitor, full curve]	

SMILES	Potency	activity, negative = inhibition
COc1cccc(CNc2ccc(N3CCC(C)CC3)cc2)c1OC	active: 17.8 µM	
Cc1ccc(C(=O)Nc2nc3c(s2)CCCC3)o1	inconclusive: 12.6 µM [inhibitor, partial curve, poor fit]	
CCN(C(=O)c1cc2cc(Br)cc(OC)c2oc1=O)c1ccccc1	inconclusive: 39.8 µM [inhibitor, single point]	
COc1cc(OC)cc(C(=O)Nc2ccc(NC(=O)c3ccco3)c(Cl)c2)c1	inconclusive: 3.16 µM [inhibitor, full curve]	
C/C(=N\Nc1nnc(C)c(=O)[nH]1)C(=O)O		inactive: -6.77%
CC1=CC(=O)c2ccccc2C1=O	active: 15.8 µM and active: 5.01 µM	
C=Cc1ccc(Cn2c(C(=O)O)c(CNCc3ccccc3)c3ccc(OC)cc32)cc1	inconclusive: 39.8 µM [inhibitor, single point]	
Cc1ccc(NC(=O)C(=O)NCC(c2cccnc2)N2CCc3ccccc3C2)cc1 (stereo not given)	inconclusive: 0.891 µM [inhibitor, full curve]	
S=c1[nH]nc(-c2ccncc2)n1/N=C/C=C/c1ccco1	inconclusive: 20 µM [inhibitor, partial curve]	
O=C(NC(=S)Nc1c(F)cc(F)cc1Br)c1ccc2c(c1)OCCO2		inactive: -4.41%
C/C(=N\Nc1ccc([N+](=O)[O-])cc1)c1ccc(O)cc1	active: 3.16 µM	
COc1ccc(-c2cn3c(n2)sc2cc(C(=O)Nc4ccc(F)cc4Cl)ccc23)cc1	inconclusive: 0.631 µM [inhibitor, full curve]	
COc1ccc(-n2ccn(CC(=O)Nc3ccc(C)c(C)c3)c(=O)c2=O)cc1OC	inconclusive: 2.51 µM [inhibitor, full curve]	
Cc1ccc2nc(SCC(=O)Nc3ccc4c(c3)CCC4)[nH]c2c1	inconclusive: 0.0562 µM [activator, full curve, poor fit]	
Cc1ccc(S(=O)(=O)N2c3ccccc3OCC2c2ccccc2)cc1 (stereo not given)		inactive: 1.1%
CCOc1cc(C(=O)OCc2cc(=O)n3nc(C4CC4)sc3n2)cc(OCC)c1OCC	inconclusive: 17.8 µM [inhibitor, single point]	
CCN(CC)Cc1c(O)ccc2c1O/C(=C\C=C\c1ccccc1)C2=O	inconclusive: 10 µM [inhibitor, partial curve]	
CCOC(=O)c1ccc(NC(=O)CCc2c(C)nc3c(c(C)nn3C(C)(C)C)c2C)cc1		inactive: -13.7%
Cc1cc(C)c2c3c(sc2n1)C(c1cccc(F)c1)C(C#N)=C(N)O3 (stereo not given)	inconclusive: 15.8 µM [inhibitor, single point]	
CCOC(=O)c1sc2nc3n(c(=O)c2c1C)CCCCC3	inconclusive: 14.1 µM [inhibitor, partial curve]	
COc1cc(Br)ccc1C1C(C(=O)Nc2ccc(C)cc2C)=C(C)Nc2nnnn21 (stereo not given)		inactive: -0.491%
COc1ccc(CCNc2nc3ccccc3c3nc(-c4cccc(C)c4)nn23)cc1OC	inconclusive: 39.8 µM [inhibitor, single point]	
